According to PubChem BioAssay AID938 (National Center for Advancing Translational Sciences (NCATS), 2007):
Screen size: about 73,000 compounds; about 1,800 (2.5%) were called active. This list was built around the results that the source calls inconclusive (neither active nor inactive); the mix of calls is not that of the screen. Calls come from the whole dose curve; as a rule, active = well fitted activation curve with a large enough effect; inconclusive = small, poorly fitted or top-dose-only effect; inactive = no such curve, though single readings can be large or run the other way. No potency is given beside an inconclusive call; the fits are too rough.

Assay: qHTS Assay for Agonists of the Thyroid Stimulating Hormone Receptor: Activators of Intracellular cAMP Concentrations in Parental HEK 293; note: nearly all actives have a fitted effect of over 55% in size; for activation: % of control where 0% means no effect
Conditions: parental HEK293 CNG cAMP sensor, membrane potential fluorescence; activation: at 57.1 µM (top of the series) unless noted
How it was run: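 Parental HEK 293 cells stably expressing a modified CNG channel (no TSHR) report cAMP rise as membrane depolarization. Membrane potential dye with 100 uM RO 20-1724 was loaded for 60 min at room temperature, then compound added for 30 min; fluorescence read at 590 nm.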
Potency is the fitted concentration of half-maximal effect; tags give direction and shape of the fitted curve.

Q: For CC(C)N(Cc1nc(-c2ccccc2)no1)C(=O)CSc1ccccc1, which Potency is on record?
A: inconclusive [activator, single point]

Q: For CCN[C@@H]1C[C@H](C)S(=O)(=O)c2sc(S(N)(=O)=O)cc21, which Potency is on record?
A: inconclusive [activator, partial curve, poor fit]

Q: With FC(F)(F)c1ccccc1-c1ccc2ncnc(NCc3cccnc3)c2c1 as the compound, how does the Potency read?
A: inconclusive [activator, full curve]

Q: For COc1cccc(OCC(O)CN(CCO)Cc2ccccc2)c1 (configuration not stated), which Potency is on record?
A: inconclusive [activator, single point]

Q: With Cc1cc(=O)[nH]c(SCC(N)=O)c1C#N as the compound, how does the Potency read?
A: inconclusive [activator, single point]

Q: Which Potency does the source give for Cc1ccc(SCc2nc(-c3ccncc3)no2)cc1 here?
A: inconclusive [activator, single point]

Q: For CCOc1ccc2nc(NC(=O)CN3CCN(c4ccccn4)CC3)sc2c1, which Potency is on record?
A: inconclusive [activator, partial curve]

Q: For O=Cc1ccc(CO)o1, which “activation” value is on record?
A: inactive: 16.8%

Q: Which Potency does the source give for CN(C)/C=C/C(=O)c1nnn(C2CCCCC2)c1NC1CCCCC1 here?
A: active: 15.8 µM

Q: With CCCNS(=O)(=O)c1ccc(CCC(=O)N2CCOCC2)cc1 as the compound, how does the Potency read?
A: inconclusive [activator, single point]

Q: With COc1ccc(CCNC(=O)C2CC(=O)N(c3ccc(F)cc3)C2)cc1OC (configuration not stated) as the compound, how does the Potency read?
A: inconclusive [activator, single point]

Q: With CC1CN(C(c2cccs2)c2sc3ncnn3c2O)CC(C)O1 (configuration not stated) as the compound, how does the Potency read?
A: inconclusive [activator, single point]

Q: Which Potency does the source give for Cn1c(CCCOc2ccc(Cl)cc2Cl)nnc1SCC(=O)Nc1nccs1 here?
A: inconclusive [activator, partial curve]

Q: For COc1ccc(C)cc1NC(=O)C1CCCN1S(=O)(=O)c1ccc2c(c1)CCC(=O)N2 (configuration not stated), which “activation” value is on record?
A: inactive: -4.16%

Q: For CCOc1ccc2cc(C#N)c(SCC(=O)N3CCC(C)CC3)nc2c1, which Potency is on record?
A: inconclusive [activator, partial curve]

Q: Which activation does the source give for CC(C)(C)c1ccc(OCC(=O)O)c(Cl)c1 here?
A: inactive: 11.1% [at 11.4 µM]

Q: For c1ccc2c(c1)c1ccccc1n2Cn1c2ccccc2c2ccccc21, which activation is on record?
A: inactive: -1.91% [at 11.4 µM]

Q: For COc1cc(CN2CCN(c3cccc(Cl)c3)CC2)cc(OC)c1OC, which “activation” value is on record?
A: inactive: 25.9%

Q: For COc1ccc(-n2c(=O)c(-c3cccc(F)c3)nc3cncnc32)cc1, which Potency is on record?
A: inconclusive [activator, partial curve]

Q: Which “activation” value does the source give for COc1ccc(C(=O)N2CCC3(CCCN(Cc4ccccc4OC)C3)CC2)cc1 here?
A: inactive: 20%

Q: With Clc1cc(Cl)c(OCc2nc(-c3ccccn3)no2)cc1Cl as the compound, how does the Potency read?
A: inconclusive [activator, single point]

Q: For COC(=O)c1ccc(C(NC(=O)OCc2ccccc2)/C(F)=C/[C@@H](C)C(=O)NC2CCCCC2)cc1 (some centres not stated), which Potency is on record?
A: inconclusive [activator, single point]

Q: For CCOC(=O)c1c(C)c(C(=O)NCCOC)c(C)n1CC, which “activation” value is on record?
A: inactive: 2.37%

Q: With O=C(Cn1c(CN2CCCCC2)nc2ccccc2c1=O)NCc1ccco1 as the compound, how does the Potency read?
A: inconclusive [activator, partial curve]

Q: Which Potency does the source give for COC(=O)c1ccc(C(=O)OC)c(NC(=O)CN2CCN(c3ccccc3OC)CC2)c1 here?
A: inconclusive [activator, single point]

Q: Which Potency does the source give for FC(F)(F)c1cccnc1N1CCN(c2ncnc3nc[nH]c23)CC1 here?
A: inconclusive [activator, single point]

Q: For Nc1ccc(-c2cnc(-c3ccc(N)cc3)nc2)cc1, which “activation” value is on record?
A: inactive: -9.21%

Q: For COc1ccc(CN(C(=O)CN2C(=O)C(C)Oc3ccccc32)C2CCCC2)c(OC)c1 (configuration not stated), which Potency is on record?
A: active: 25.1 µM

Q: With NC(=O)CC[C@@H](N)C(=O)O as the compound, how does the Potency read?
A: active: 31.6 µM

Q: Which Potency does the source give for Cc1cc(NC(=O)CSc2nc3c(c(=O)n2Cc2ccccc2)SC(C)C3)no1 (configuration not stated) here?
A: inconclusive [activator, single point]

Q: With CC(=O)N1CC2(CC2)CC1c1ccccc1 (configuration not stated) as the compound, how does the “activation” value read?
A: inactive: 3.26%

Q: With COc1ccc(-c2nc(C#N)c(NCCCN(C)C)o2)cc1OC as the compound, how does the “activation” value read?
A: inactive: 6.99%

Q: Which “activation” value does the source give for c1ccc(C2NCCn3cccc32)cc1 (configuration not stated) here?
A: inactive: -2.35%

Q: For CC1CCCC(NC(=O)c2ccc3c(c2)N(Cc2ccccc2)C(=O)CS3=O)C1C (configuration not stated), which Potency is on record?
A: inconclusive [activator, partial curve]

Q: Which “activation” value does the source give for COC(=O)c1ccc(COc2nc(C)cc(C)c2C#N)o1 here?
A: inactive: 25.9%

Q: For CCOc1ccccc1Nc1nc(N)nc(CSc2nncn2C)n1, which Potency is on record?
A: inconclusive [activator, partial curve]

Q: With CCCc1nnc(NC(=O)c2c(O)c3cccc4c3n(c2=O)CCC4)s1 as the compound, how does the Potency read?
A: inconclusive [activator, single point]

Q: With CCOC(=O)C1C(=O)NC(SC)=C(C#N)C1c1ccccc1F (configuration not stated) as the compound, how does the Potency read?
A: inconclusive [activator, partial curve]

Q: With CCN(CC)c1ccc2c(Cl)c(Br)c(=O)oc2c1 as the compound, how does the Potency read?
A: inconclusive [activator, partial curve]

Q: Which Potency does the source give for CCN1CCN(C(=O)Cn2c(=O)sc3ccccc32)CC1 here?
A: inconclusive [activator, single point]

Q: For N#Cc1ccccc1NCc1ccccc1, which Potency is on record?
A: inconclusive [activator, single point]

Q: Which Potency does the source give for CCn1nnc(-c2ccccc2NC(=O)c2ccc(-n3cnnn3)cc2)n1 here?
A: inconclusive [activator, partial curve]

Q: For COC(=O)c1ccsc1NC(=O)CSc1nnnn1-c1ccccc1SC, which Potency is on record?
A: inconclusive [activator, partial curve]

Q: Which Potency does the source give for CS(=O)(=O)N1CCN(c2nc3ccccc3s2)CC1 here?
A: inconclusive [activator, single point]

Q: Which Potency does the source give for c1ccc(N2CCN(Cc3nnnn3C3CCCCC3)CC2)cc1 here?
A: inconclusive [activator, partial curve]

Q: Which Potency does the source give for COc1cccc(-c2oc3ccccc3c(=O)c2O)c1 here?
A: inconclusive [activator, partial curve, poor fit]

Q: With CC1=C(C(=O)N2CCc3ccccc32)C2(CCC(C)CC2)OC1=O (configuration not stated) as the compound, how does the Potency read?
A: inconclusive [activator, partial curve, poor fit]
